In the supplement of paper PMC4166925:
± gives the standard deviation of the averaged measurements. Whole data set: some 33,000 sequences, median “E-score (dimensionless, -0.5 to 0.5)” near -0.049, cut for the highest 2% near 0.37. The list shows a part of the results.

test system: T1, PmTbr T-box DNA-binding domain (GST fusion); experiment: PBM E-score of 8-mer (E-score (dimensionless, -0.5 to 0.5)); Tbr is Tbrain of the sea star Patiria miniata (Pm) or the sea urchin Strongylocentrotus purpuratus (Sp); higher = stronger binding preference; most listed sequences are background and not binding sites; conditions: the construct has about 5 more residues each side
T1 sequence: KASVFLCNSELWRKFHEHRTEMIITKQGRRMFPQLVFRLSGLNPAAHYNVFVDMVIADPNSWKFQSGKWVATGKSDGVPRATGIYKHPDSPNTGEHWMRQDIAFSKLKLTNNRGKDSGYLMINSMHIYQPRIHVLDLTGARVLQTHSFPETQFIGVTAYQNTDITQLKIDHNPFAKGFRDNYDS
Method in brief: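 Universal Agilent oligonucleotide arrays, made double-stranded by primer extension, were incubated with 200 nM GST-fused Tbr T-box DNA-binding domain in PBS (pH 7.5). The protein was expressed in BL21 E. coli at 20 °C and purified by glutathione affinity chromatography. After scanning and quantification, the Universal PBM Analysis Suite assigned an enrichment E-score to each ungapped 8-mer, averaged over duplicate arrays.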

Sequence | PBM E-score of 8-mer
GATACACA | -0.0097 ± 0.0035
CTAAATCA | -0.0232 ± 0.021
AGAAATAG | -0.103 ± 0.051
GTACCCGA | -0.181 ± 0.1
CTCTCCGA | -0.0521 ± 0.045
ACACTGCT | 0.132 ± 0.015
ACTGAGAG | -0.222 ± 0.014
AGCGATTG | -0.0321 ± 0.0042
TGCCAGAA | -0.00762 ± 0.043
GAGAAGAA | -0.0456 ± 0.024
TACTTGCA | 0.0126 ± 0.026
ACGGTACG | -0.235 ± 0.024
ACTTCTAA | 3e-05 ± 0.12
GCCCGTCC | -0.19 ± 0.012
GTGGCATA | -0.00798 ± 0.078
CCTACATA | -0.165 ± 0.054
GGGTCTGA | -0.157 ± 0.028
AGTCGAAA | -0.142 ± 0.01
AGGTTCTG | -0.132 ± 0.017
TAGTTTCA | -0.162 ± 0.037
GTAAATAA | -0.0684 ± 0.071
GACAGTCA | 0.117 ± 0.0081

Sequence | PBM E-score of 8-mer
AGTAGCTC | -0.307 ± 0.052
ATATGCCG | -0.235 ± 0.058
CACCTCGG | 0.426 ± 0.015
TACATGAA | -0.1 ± 0.051
GGAACTCC | -0.22 ± 0.083
ACTGGACT | -0.131 ± 0.1
GACATAAA | 0.154 ± 0.081
GTCCTGTA | -0.131 ± 0.013
GTATCCTA | -0.155 ± 0.036
AGGACATA | -0.211 ± 0.024
CACAGACG | 0.109 ± 0.025
CCGGGTGA | 0.0636 ± 0.031
CTCGGCAG | -0.0463 ± 0.094
AAGTGCGT | 0.149 ± 0.039
GCATAAAA | -0.184 ± 0.045
AAGCACCT | 0.208 ± 0.024
ATATTGGC | 0.1323 ± 0.00022
CACCTGCG | 0.429 ± 0.019
CGTCCCGC | 0.0447 ± 0.092
AACGTTCG | 0.0624 ± 0.041
ACTCGTGA | 0.28 ± 0.0032
AAGCTTTG | -0.132 ± 0.024

Sequence | PBM E-score of 8-mer
AAGATAGC | -0.0909 ± 0.033
ATGTGAGC | 0.0849 ± 0.0062
TCAGGTCA | -0.147 ± 0.017
ACCGTCCC | -0.208 ± 0.0082
CTTCTAGA | -0.0731 ± 0.034
GAAAGAGA | -0.0649 ± 0.017
AACTTCCG | -0.141 ± 0.013
ATCCGCTG | -0.106 ± 0.055
ATGCAGTA | -0.1591 ± 0.00047
ACTTTAAT | -0.0795 ± 0.12
ACGGAGCG | -0.0664 ± 0.049
AACAGAAT | -0.0053 ± 0.032
GTATTCAA | -0.311 ± 0.0036
CTGGTATA | -0.317 ± 0.054
TATTGCGA | 0.126 ± 0.058
ACCGAGTA | -0.0655 ± 0.11
TCCCGCCA | 0.0126 ± 0.064
GGCTTATA | -0.322 ± 0.057
CTATTTAC | -0.0656 ± 0.063
ATTGGGCG | 0.004 ± 0.007
AATCACGC | 0.286 ± 0.013
GAGCTGAA | -0.0595 ± 0.027

Sequence | PBM E-score of 8-mer
ATATATTG | -0.0768 ± 0.17
CAATCCGC | -0.00975 ± 0.0096
CGAGAGAC | -0.1636 ± 0.001
CGTCTCAC | 0.3 ± 0.029
AATGCAAG | -0.255 ± 0.012
CGTAGGTC | -0.279 ± 0.027
GCGAGTGA | 0.2338 ± 0.0017
AACATCAA | -0.0297 ± 0.099
ACTAAGAT | 0.0982 ± 0.03
TGGTAAAA | 0.00946 ± 0.093
ACTTCTCC | -0.0311 ± 0.0014
ATAGAGGG | -0.131 ± 0.045
ATACCTAT | -0.0294 ± 0.018
CAAGCCTG | -0.0239 ± 0.075
GCGTTCAC | 0.131 ± 0.027
ATGTTGCC | -0.032 ± 0.029
ACTACAGT | -0.14 ± 0.065
TCATGTAA | -0.126 ± 0.019
AGCGGCCC | -0.224 ± 0.011
AAATGCGT | -0.027 ± 0.067
ATTTGTAC | -0.0401 ± 0.085
CATAGACA | -0.0439 ± 0.027

Sequence | PBM E-score of 8-mer
GAGTCTGA | -0.244 ± 0.015
CATTCCTC | -0.173 ± 0.013
AAGATTAA | -0.077 ± 0.069
GAAACCTA | 0.0176 ± 0.07
GACCCTTA | -0.0822 ± 0.0071
AAGCTACA | -0.218 ± 0.056
ATGCTTAA | -0.261 ± 0.029
CATCACGC | 0.247 ± 0.046
ATTAGGTC | -0.153 ± 0.013
AGCACTTA | 0.272 ± 0.0086
GTTGTTCA | 0.0173 ± 0.026
TAGTACTA | -0.0576 ± 0.053
ACCGCCGG | 0.0198 ± 0.11
GAATTAAA | -0.137 ± 0.11
CTACGTTA | -0.232 ± 0.004
GGTCTCAA | -0.093 ± 0.037
ATTATTAG | -0.0653 ± 0.033
CCCAACAA | 0.0135 ± 0.11
AGCATGCT | -0.0402 ± 0.018
CGACACAG | 0.1771 ± 0.00083
CCTAAACC | -0.0267 ± 0.04
